Molecular target: Aj_EasH (Aspergillus japonicus, UniProt A0A1L1QK38)
Settings: co-crystallised with 1 mM aKG, 0.01 M ZnCl2, 0.1 M HEPES pH 7.0, 20% PEG 6000; aKG coordinated to active-site iron (H131, E133, H209)

O=C(O)CCC(=O)C(=O)O [aKG]
X-ray crystallography (2.2 Å): Inspection of the electron density map of Aj_EasH showed clear density for aKG and iron

From publication PMC5317212, “Structural characterization of EasH (Aspergillus japonicus) – an oxidase involved in cycloclavine biosynthesis” (Chemical Communications (Cambridge, England), 2016)
